The values below come from PMC10318011.

Sequences of proteins named here, by UniProt entry; tags and fusion partners are left off. A change or cut given only in a name is not applied to a line headed by its entry. Residues count along the entry.
UniProt Q9UM11: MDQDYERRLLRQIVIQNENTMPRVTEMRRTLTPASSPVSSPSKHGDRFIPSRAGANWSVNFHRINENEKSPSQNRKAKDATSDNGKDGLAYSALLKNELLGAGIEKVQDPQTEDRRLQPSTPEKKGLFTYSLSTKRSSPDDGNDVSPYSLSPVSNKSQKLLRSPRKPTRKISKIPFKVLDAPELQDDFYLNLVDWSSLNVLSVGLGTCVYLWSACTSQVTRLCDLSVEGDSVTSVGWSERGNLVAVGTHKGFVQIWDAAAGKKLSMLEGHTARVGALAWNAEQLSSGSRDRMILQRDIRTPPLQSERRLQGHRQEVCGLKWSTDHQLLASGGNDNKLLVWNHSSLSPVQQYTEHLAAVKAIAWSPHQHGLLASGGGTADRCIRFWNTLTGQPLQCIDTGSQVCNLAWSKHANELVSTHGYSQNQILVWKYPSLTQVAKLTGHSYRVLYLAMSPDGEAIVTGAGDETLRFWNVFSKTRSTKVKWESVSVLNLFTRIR
UniProt Q96EB6: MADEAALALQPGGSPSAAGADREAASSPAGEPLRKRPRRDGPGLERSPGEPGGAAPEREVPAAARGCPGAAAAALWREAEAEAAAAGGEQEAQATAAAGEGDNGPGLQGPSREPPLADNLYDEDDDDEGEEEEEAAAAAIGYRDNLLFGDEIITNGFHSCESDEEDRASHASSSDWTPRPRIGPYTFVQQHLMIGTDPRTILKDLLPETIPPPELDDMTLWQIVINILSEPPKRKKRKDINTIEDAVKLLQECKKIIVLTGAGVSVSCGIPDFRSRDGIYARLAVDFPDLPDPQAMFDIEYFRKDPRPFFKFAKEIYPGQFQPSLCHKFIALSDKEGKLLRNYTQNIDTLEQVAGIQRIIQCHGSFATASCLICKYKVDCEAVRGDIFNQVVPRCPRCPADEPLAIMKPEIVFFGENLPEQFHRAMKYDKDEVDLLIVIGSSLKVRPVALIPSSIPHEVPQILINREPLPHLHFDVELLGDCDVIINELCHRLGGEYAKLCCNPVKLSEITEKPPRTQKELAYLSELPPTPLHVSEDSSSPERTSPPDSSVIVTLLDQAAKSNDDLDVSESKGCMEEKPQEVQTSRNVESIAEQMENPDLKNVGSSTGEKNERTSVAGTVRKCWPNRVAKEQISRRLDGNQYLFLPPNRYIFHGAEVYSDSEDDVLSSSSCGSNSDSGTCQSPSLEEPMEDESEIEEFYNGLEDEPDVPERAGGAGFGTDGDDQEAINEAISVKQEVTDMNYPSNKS
GST-SIRT1(114–217): residues 114-217 of Q96EB6

In one test the target is Myc-Cdh1 (UniProt Q9UM11). The test is described as follows: co-IP; HEK293 cells transfected with Myc-Cdh1 and Flag-SIRT1 WT or Flag-SIRT1∆; IP with anti-Myc antibody, WB with anti-Flag antibody (Fig. 5b; Supplementary Fig. 2-2a under overexpression conditions).
For the next test, the target named is Flag-SIRT1 WT (UniProt Q96EB6). The test is described as follows: co-IP; HEK293 cells cotransfected as indicated; IP with anti-Flag antibody, WB with anti-GFP antibody (Fig. 2j).
The target in a further test is GST-SIRT1(114–217) (UniProt Q96EB6). The test is described as follows: pull-down; competitive GST pull-down: GST or GST-SIRT1(114–217) and in vitro-translated Myc-Cdh1 incubated with increasing amounts of in vitro-translated Flag-AROS; WB; only the target purified.
The target of a further test is T1, GST-AROS (UniProt Q86WX3).
T1 sequence: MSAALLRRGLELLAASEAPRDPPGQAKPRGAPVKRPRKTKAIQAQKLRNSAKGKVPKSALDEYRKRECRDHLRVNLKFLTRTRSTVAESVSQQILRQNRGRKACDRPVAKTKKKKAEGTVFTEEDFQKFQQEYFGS
The test is described as follows: pull-down; GST pull-down: purified GST, GST-AROS or GST-Cdh1 (2 μg) incubated with 10 μl of in vitro-translated Flag-SIRT1∆ or Flag-SIRT1(114–217); WB with anti-Flag M2; only the target purified.

Another test concerns the target GST-Cdh1 (UniProt Q9UM11). The test is described as above.

Results are given in words; binding and its absence hold for the method and conditions named. Binding seen in cells or lysates may run through a third protein. Some binding calls cover weakened binding; strength is not graded here. For some assays here: Tags and fused reporters may be left off the sequences shown.

As for “Flag-SIRT1∆ (from UniProt Q96EB6 218-747) (domain or fragment)”, in the test with Myc-Cdh1, the binding entry is “no binding”. Consider GFP-Cdh1 (from UniProt Q9UM11 1-496), for which the binding result with Flag-SIRT1 WT is “binds”.

For the molecule “Myc-Cdh1 (in vitro translated) (from UniProt Q9UM11 1-496)”, the binding result in the test with GST-SIRT1(114–217) is on record as “binds”. As for “Flag-SIRT1(114–217) fragment (from UniProt Q96EB6 114-217) (domain or fragment)”, the binding result in the test with GST-AROS and with GST-Cdh1 was “binds” in each case. “Flag-SIRT1∆ (in vitro translated) (from UniProt Q96EB6 218-747) (domain or fragment)”: the binding entry in the test with GST-AROS and with GST-Cdh1 was “no binding” in each case.

B1: Flag-AROS (in vitro translated) (protein, UniProt Q86WX3 1-136)
chain: MSAALLRRGLELLAASEAPRDPPGQAKPRGAPVKRPRKTKAIQAQKLRNSAKGKVPKSALDEYRKRECRDHLRVNLKFLTRTRSTVAESVSQQILRQNRGRKACDRPVAKTKKKKAEGTVFTEEDFQKFQQEYFGS
For the molecule B1, in the test with GST-SIRT1(114–217), the binding result is reported as “binds”.
